According to PubChem BioAssay AID504832 (National Center for Advancing Translational Sciences (NCATS), 2011):
Screen size: about 310,000 compounds; about 18,000 (5.8%) were called active. This list was built around the results that the source calls inconclusive (neither active nor inactive); the mix of calls is not that of the screen. The call rests on the fitted dose curve; in most records, active means well fitted inhibition curve with a large enough effect; inconclusive means small, poorly fitted or top-dose-only effect, or another doubt; inactive means no such curve, though single readings can be large or run the other way. Potencies of inconclusive entries are left out as doubtful fits.

assay: Primary qHTS for delayed death inhibitors of the malarial parasite plastid, 48 hour incubation; conditions: P. falciparum luciferase growth in erythrocytes; series mostly up to 28.7 µM; activity change, negative = inhibition: at the top concentration
How it was run: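 Firefly luciferase activity from engineered P. falciparum reports growth; inhibitors lower the luminescent signal. Cultures contained 2% hematocrit erythrocytes at 0.1% final parasitemia.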
On the % scale 0 is the no-effect control and ±100 the full control effect; potency means the concentration at half of the fitted maximal effect; tags describe the fitted curve by direction and shape.

| SMILES | activity change, negative = inhibition | Potency |
| --- | --- | --- |
| CCC(C(=O)O)N1C(=O)C2CCCCC2C1=O (stereo not drawn) | inactive: 15.9% | – |
| O=C(Nc1ccccc1C(F)(F)F)N1CCCC1c1cccnc1 (stereo not drawn) | inactive: 11% | – |
| CCOC(=O)C(C)Oc1cccc2c(=O)n(CC(=O)NCCc3ccccc3)ccc12 (stereo not drawn) | – | inconclusive [inhibitor, partial curve, poor fit] |
| N#Cc1cc2c(nc1SCc1cccnc1)CCCCC2 | – | inconclusive [inhibitor, single point] |
| Cc1cccc(N2CCN(C(=O)CCCOc3ccccc3)CC2)c1C | inactive: 129% | – |
| Cc1ccc2cc(CN(CCCN3CCOCC3)C(=O)NC3CCCCC3)c(=O)[nH]c2c1C | – | inconclusive [inhibitor, single point] |
| OC(CNCC(c1ccc(Cl)cc1Cl)c1c[nH]c2ccccc12)c1ccccc1 (stereo not drawn) | – | inconclusive [inhibitor, full curve] |
| O=C(c1ccc(-n2cncn2)c([N+](=O)[O-])c1)N1CCN(S(=O)(=O)c2ccc(F)c(F)c2)CC1 | inactive: -6.4% | – |
| COc1cc(-c2nnc(NC(=O)CS(=O)(=O)c3ccc(C)cc3)o2)cc(OC)c1OC | – | inconclusive [inhibitor, single point] |
| Cc1cccc2c(C(=O)N3CCN(C(=O)c4ccco4)CC3)cc(-c3cccc(Br)c3)nc12 | – | inconclusive [inhibitor, partial curve] |
| COc1cc(Br)c(Br)cc1N | – | inconclusive [inhibitor, full curve] |
| Cn1c(C(=O)N2CCN(c3ccc(F)cc3)CC2)cc2ccccc21 | – | inconclusive [inhibitor, full curve] |
| O=C1CN(C(=O)COc2ccccc2Cl)c2ccccc2N1 | – | inconclusive [inhibitor, single point] |
| CCOc1cc(/C=C/C(=O)N(CC)CC(=O)NCc2cccs2)cc(Cl)c1OC | – | inconclusive [inhibitor, single point] |
| Cc1ccc(S(=O)(=O)N(CCC(=O)NCc2ccccc2F)c2ccccc2)cc1 | – | inconclusive [inhibitor, single point] |
| CC1CCN(S(=O)(=O)c2ccc(C(=O)Nc3ncccc3O)cc2)CC1 | – | inconclusive [inhibitor, full curve] |
| O=C(Nc1ccccc1N1CCOCC1)c1ccc(Cl)c(S(=O)(=O)NCc2ccco2)c1 | – | inconclusive [inhibitor, partial curve] |
| O=C(CCCOc1ccc(Br)cc1)Nc1ccc(S(=O)(=O)N2CCOCC2)cc1 | – | inconclusive [inhibitor, partial curve] |
| CCOc1ccccc1NC(=O)N1CCC(n2nnc3cc(C)ccc32)CC1 | – | inconclusive [inhibitor, partial curve, poor fit] |
| CCCCn1c(N)c(N(CCOC)C(=O)COC(=O)Cc2cccc(OC)c2)c(=O)[nH]c1=O | – | inconclusive [inhibitor, partial curve, poor fit] |
| Fc1ccc(Oc2ncccn2)c(F)c1 | inactive: 12.3% | – |
| COc1ccc(OCC(=O)NNc2c3ccccc3nc3ccccc23)cc1 | – | active: 7.38 µM |
| Cc1ccccc1OCc1nc(-c2ccc(NC(=O)c3cccs3)cc2)no1 | – | inconclusive [inhibitor, partial curve, poor fit] |

| SMILES | activity change, negative = inhibition | Potency |
| --- | --- | --- |
| CN(C)c1ccc(/C=N/NC(=O)c2cnc3ccccc3c2)cc1 | – | inconclusive [inhibitor, partial curve, poor fit] |
| CCN(CC)S(=O)(=O)c1ccc(C)c(NC(=O)Cn2cnc3cc([N+](=O)[O-])ccc3c2=O)c1 | – | inconclusive [inhibitor, single point] |
| Cc1cccc(C)c1NC(=O)Cn1nnc(C(=O)Nc2ccc(F)cc2F)c1N | inactive: 39.4% | – |
| C[C@@H]1CC(=O)[C@H]2CC(CO)=CCC[C@@H]2[C@@]1(C)CC/C(=C/CO)CO | – | inconclusive [inhibitor, single point] |
| COc1ccc(OC)c(-c2nc(CN3CCN(C(=O)c4ccco4)CC3)c(C)o2)c1 | – | inconclusive [inhibitor, single point] |
| CCNC(=S)NNC(=O)c1ccc(OC)cc1 | inactive: 12.8% | – |
| Cc1ccc(C)c(N(C(=O)Cc2cccs2)C(C(=O)NC2CCCC2)c2ccc(C)o2)c1 (stereo not drawn) | – | inconclusive [inhibitor, partial curve] |
| NC(N)=Nc1nc(-c2ccccc2)c2ccccc2n1 | – | active: 11.7 µM |
| CC(C)(C)NC(=O)c1ccc2c(c1)N(CC(=O)N1CCN(c3ccccc3F)CC1)C(=O)C(C)(C)O2 | – | inconclusive [inhibitor, single point] |
| COc1cc2c(cc1OC)C1(CCCC1)CNC2c1ccc([N+](=O)[O-])cc1 (stereo not drawn) | – | inconclusive [inhibitor, single point] |
| CC[n+]1c(C)sc2c(C)cc(C)cc21 | inactive: 2.58% | – |
| CCN(CC)S(=O)(=O)c1ccc2[nH]c(=O)cc(C(=O)Nc3ccccc3N3CCCC3)c2c1 | – | inconclusive [inhibitor, single point] |
| Cc1cc(OCC(=O)Nc2cccc(S(=O)(=O)N3CCCCC3)c2)ccc1Cl | – | inconclusive [inhibitor, single point] |
| CC(=O)n1cc([C@H]2C=C(C(=O)N3CCOCC3)O[C@@H](OCc3ccc(CO)cc3)C2)c2ccccc21 | – | inconclusive [inhibitor, single point] |
| COc1ccc(C2/C=C\CN(CC(C)(C)C)CC(=O)N2Cc2ccc(F)cc2)cc1 (stereo not drawn) | – | inconclusive [inhibitor, single point] |
| C#CCOCCOCCOCCNc1nc(N2CCN(C(=O)CCCCCCCCCCNC(=O)Cn3cc(CCCCCN)nn3)CC2)nc(N2CCN(C(=O)CCCCCCCCCCNC(=O)Cn3cc(C[C@@H](C)O)nn3)CC2)n1 | – | active: 0.329 µM |
| Cc1cc(C)nc(SCc2ccc3nonc3c2)n1 | – | inconclusive [inhibitor, single point] |
| Cc1ccc(NC(=O)NNC(=O)c2ccc3c(c2)NC(=O)C(C)(C)O3)cc1 | inactive: 18.8% | – |
| Cn1cc(C(=O)Nc2ccc(F)c(F)c2)cn1 | inactive: 26.7% | – |
| COc1cc(-c2cc(C(=O)N(C)Cc3ccccc3)c3ccccc3n2)cc(OC)c1OC | – | active: 13.1 µM |
| CS(=O)(=O)c1ccc(Cl)c(NC(=O)CSc2nc3ccccc3c(=O)n2CCCN2CCOCC2)c1 | – | inconclusive [inhibitor, single point] |
| CC1(C)C(=O)Nc2ccccc2N1C(=O)CN1C(=O)NC(CCc2ccccc2)C1=O (stereo not drawn) | – | inconclusive [inhibitor, partial curve] |
| CCCc1cc(C(=O)N2CCN(c3ccc(C(F)(F)F)cn3)CC2)sc1C | inactive: 0.731% | – |

| SMILES | activity change, negative = inhibition | Potency |
| --- | --- | --- |
| CC(C)(C)c1ccc(C(=O)C2CCCN(C(=O)C3CCOCC3)C2)cc1 (stereo not drawn) | – | active: 5.86 µM |
| O=C(c1ccco1)N1CCN(CC(=O)N2c3ccccc3CCc3ccccc32)CC1 | – | inconclusive [inhibitor, partial curve] |
| CCCNC(=O)CN1CCN(c2cc3ccccc3c(Cl)n2)CC1 | – | inconclusive [inhibitor, partial curve, poor fit] |
| COc1ccc(NC(=O)c2cc(-c3ccco3)on2)cc1 | inactive: 443% | – |
| Cc1ccc(-c2cc(=O)c3ccc(F)cc3[nH]2)cc1 | – | inconclusive [inhibitor, partial curve, poor fit] |
| CCn1c(/C=C/Nc2ccccc2)[n+](CC)c2cc(Cl)c(Cl)cc21 | – | active: 7.38 µM |
| O=C1CC(N2CCCCC2)C(=O)N1c1ccccc1 (stereo not drawn) | – | inconclusive [inhibitor, partial curve, poor fit] |
| C#CCn1c(=NC(=O)c2ccc(Cl)s2)sc2cccc(OC)c21 | – | inconclusive [inhibitor, single point] |
| CCC(C(=O)NC1CCCC1)N(Cc1ccco1)C(=O)Cn1nnc(-c2ccc(C)cc2)n1 (stereo not drawn) | – | inconclusive [inhibitor, single point] |
| COc1cccc(CNCc2cccnc2)c1OCc1ccccc1 | – | inconclusive [inhibitor, single point] |
| CC(=O)c1c(C)[nH]c(C(=O)Nc2ccc(S(=O)(=O)N(C)C)cc2)c1C | – | inconclusive [inhibitor, partial curve] |
| Cc1c(C#N)c2ncnc(-c3ccccc3)c2n1-c1ccccc1 | inactive: -6.32% | – |
| Cc1cccc(C2c3[nH]c4ccccc4c3CCN2C(=O)c2cc(C(C)C)nc(N)n2)n1 (stereo not drawn) | – | inconclusive [inhibitor, full curve] |
| CCOc1cccc(/C=N/Nc2nc(N3CCCC3)nc(N3CCCC3)n2)c1O | – | active: 0.828 µM |
| O=C(Nc1cnn(Cc2ccc(Cl)cc2)c1)c1ccc([N+](=O)[O-])cc1 | – | inconclusive [inhibitor, partial curve, poor fit] |
| COc1ccc(NC(=S)NCCCCCC(=O)C[N+](=O)[O-])cc1 | – | inconclusive [inhibitor, single point] |
| CC(C)Nc1nc(-c2ccccc2)nc(-n2ccnc2)n1 | – | active: 2.33 µM |
| Nc1nc(F)cc(N2CCCCCC2)n1 | inactive: 5.51% | – |
| CC(C)CC(=O)CC1(O)C(=O)Nc2ccccc21 (stereo not drawn) | inactive: 0% | – |
| O=C(NC(C(=O)N/N=C/c1c2ccccc2cc2ccccc12)c1n[nH]c(=O)c2ccccc12)c1ccccc1 (stereo not drawn) | – | active: 11.7 µM |
| COc1ccc(OCCC(=O)OCC(=O)NCc2ccc(F)cc2)cc1 | inactive: 3.83% | – |
| O=C(NCc1ccccc1CN1CCCC1)c1cccc(S(=O)(=O)Nc2ccc(F)cc2)c1 | – | active: 13.1 µM |
